Laboratory results as given in PubChem BioAssay (NCATS).
Records with an inconclusive call do not appear. The call rests on the fitted dose curve; in most records, active means well fitted curve in the direction sought with a large enough effect; inconclusive means small, poorly fitted or top-dose-only effect, or another doubt; inactive means no such curve, though single readings can be large; an effect the other way counts as inactive or inconclusive. A structure can be active in one record and inactive in another. Some entries of the source have several records that differ or are many. They are shown here; other results are not. The source may hold further records. The values listed for one entry are repeated measurements across runs, samples, wells, individuals or studies. Brackets tell where a record comes from. Letters count within one entry.

Legend:
[1] = qHTS of pediatric cancer cell lines to identify multiple opportunities for drug repurposing: Primary screen for NB1643 cells (AID 1347099); settings: NB1643 neuroblastoma viability, CellTiter-Glo luminescence, 48 h; series mostly up to 46 µM; further: nearly all actives have a fitted effect of over 50% in size
[2] = qHTS of pediatric cancer cell lines to identify multiple opportunities for drug repurposing: Primary screen for SK-N-SH cells (AID 1347098); settings: SK-N-SH viability, CellTiter-Glo luminescence, 48 h; series mostly up to 57 µM; further: nearly all actives have a fitted effect of over 65% in size
How it was run: (§1)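 Cells (500-1,000/well) rested 5 h, then received compounds for 48 h; metabolically active cells were measured by CellTiter-Glo luminescence. Final concentrations spanned up to 46 µM (MIPE, 11-point) or 0.59 nM-46 µM (NPC, 8-point) in primary screens, 11-point in follow-ups.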

[3] = qHTS of pediatric cancer cell lines to identify multiple opportunities for drug repurposing: Primary screen for RD cells (AID 1347104); settings: RD rhabdomyosarcoma viability, CellTiter-Glo luminescence, 48 h; series mostly up to 46 µM; further: nearly all actives have a fitted effect of over 55% in size
How it was run: (§2)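 Luminescence from CellTiter-Glo served as readout of metabolically active cells after 48 h compound exposure. Titrations: MIPE 11-point, from 0.78 nM; NPC 8-point, from 0.59 nM (final). Concentration-response curves came straight from the primary screen.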

[4] = qHTS of pediatric cancer cell lines to identify multiple opportunities for drug repurposing: Primary screen for A673 cells (AID 1347092); settings: A673 Ewing sarcoma viability, CellTiter-Glo ATP luminescence, 48 h; series mostly up to 46 µM; further: nearly all actives have a fitted effect of over 45% in size
How it was run: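 Cell viability of A673 measured by CellTiter-Glo ATP luminescence after 48 hours compound exposure. Dilution series spanned 0.78 nM to 46 µM (MIPE, 11-point) or 0.59 nM to 46 µM (NPC, 8-point); bortezomib 2.3 uM positive control.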

[5] = qHTS of pediatric cancer cell lines to identify multiple opportunities for drug repurposing: Primary screen for SK-N-MC cells (AID 1347093); settings: SK-N-MC viability, CellTiter-Glo luminescence, 48 h; series mostly up to 46 µM
[6] = qHTS of pediatric cancer cell lines to identify multiple opportunities for drug repurposing: Primary screen for BT-12 cells (AID 1347101); settings: BT-12 viability, CellTiter-Glo luminescence, 48 h; series mostly up to 57.3 µM; further: nearly all actives have a fitted effect of over 25% in size
How it was run: as §1

[7] = qHTS of pediatric cancer cell lines to identify multiple opportunities for drug repurposing: Primary screen for NB-EBc1 cells (AID 1347095); settings: NB-EBc1 neuroblastoma viability, CellTiter-Glo luminescence, 48 h; series mostly up to 46 µM
[8] = qHTS of pediatric cancer cell lines to identify multiple opportunities for drug repurposing: Primary screen for LAN-5 cells (AID 1347100); settings: LAN-5 neuroblastoma viability, CellTiter-Glo luminescence, 48 h; series mostly up to 46 µM
How it was run: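 Cells (500-1,000/well) in growth media were settled 5 h at 37 degrees C, then given compounds for 48 h. Viability was read as CellTiter-Glo luminescence. Primary runs used MIPE at 11 points (0.78 nM-46 µM) and NPC at 8 points (0.59 nM-46 µM); follow-ups used 11 points.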

[9] = qHTS of pediatric cancer cell lines to identify multiple opportunities for drug repurposing: Primary screen for Saos-2 cells (AID 1347097); settings: Saos-2 viability, CellTiter-Glo ATP luminescence, 48 h; series mostly up to 46 µM; further: nearly all actives have a fitted effect of over 40% in size
How it was run: as §2

[10] = qHTS of pediatric cancer cell lines to identify multiple opportunities for drug repurposing: Primary screen for DAOY cells (AID 1347090); settings: DAOY medulloblastoma viability, CellTiter-Glo luminescence, 48 h; series mostly up to 46 µM; further: nearly all actives have a fitted effect of over 55% in size
How it was run: (§3)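 Eight- or eleven-point concentration series, 48 h treatment at 37 degrees C in growth media; readout CellTiter-Glo luminescence. Potency and efficacy were taken from the concentration-response curves.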

[11] = qHTS of pediatric cancer cell lines to identify multiple opportunities for drug repurposing: Primary screen for MG 63 (6-TG R) cells (AID 1347105); settings: MG 63 (6-TG R) viability, CellTiter-Glo, 48 h; series mostly up to 46 µM; further: nearly all actives have a fitted effect of over 50% in size
How it was run: as §2

[12] = qHTS of pediatric cancer cell lines to identify multiple opportunities for drug repurposing: Primary screen for SJ-GBM2 cells (AID 1347091); settings: SJ-GBM2 viability, CellTiter-Glo luminescence, 48 h; series mostly up to 46 µM
How it was run: as §3

[13] = qHTS of pediatric cancer cell lines to identify multiple opportunities for drug repurposing: Primary screen for BT-37 cells (AID 1347094); settings: BT-37 viability, CellTiter-Glo luminescence, 48 h; series mostly up to 57.3 µM
How it was run: as §2

[14] = qHTS of pediatric cancer cell lines to identify multiple opportunities for drug repurposing: Primary screen for OHS-50 cells (AID 1347103); settings: OHS-50 osteosarcoma viability, CellTiter-Glo luminescence, 48 h; series mostly up to 57.3 µM; further: nearly all actives have a fitted effect of over 40% in size
How it was run: as §1
Potency means the concentration at half of the fitted maximal effect.

## CN1CCC(=C2c3ccccc3CCc3sccc32)CC1
[1]
  Potency: active: 13.2 µM [sample A] and inactive [sample B]

## CCCCC(CC)COC(=O)C(C#N)=C(c1ccccc1)c1ccccc1 (stereo unspecified)
[2]
  Potency: active: 5.41 µM [sample A] and inactive [sample B]
[1]
  Potency: active: 10.5 µM [sample A] and inactive [sample B]
[3]
  Potency: active: 26.4 µM [sample A] and inactive [sample B]

## Cc1ccc(C)c(OCCCC(C)(C)C(=O)O)c1
[4]
  Potency: inactive [sample A] and active: 14.8 µM [sample B]
[5]
  Potency: inactive [sample A] and active: 5.9 µM [sample B]
[1]
  Potency: inactive [sample A] and active: 13.2 µM [sample B]
[6]
  Potency: inactive [sample A] and active: 21.7 µM [sample B]

## Cc1nccn1CC1CCc2c(c3ccccc3n2C)C1=O (stereo unspecified)
[1]
  Potency: active: 16.6 µM [sample A] and inactive [sample B]

## CCCc1cc(=O)[nH]c(=S)[nH]1
[4]
  Potency: inactive [sample A] and active: 2.96 µM [sample B]
[5]
  Potency: inactive [sample A] and active: 14.8 µM [sample B]
[7]
  Potency: inactive [sample A] and active: 2.64 µM [sample B]
[8]
  Potency: inactive [sample A] and active: 20.9 µM [sample B]

## CC(S)C(=O)NCC(=O)O (stereo unspecified)
[4]
  Potency: active: 14.8 µM [sample A] and inactive [sample B]

## Clc1ccc(C(Cn2ccnc2)OCc2ccc(Sc3ccccc3)cc2)c(Cl)c1 (stereo unspecified)
[4]
  Potency: inactive [sample A] and active: 18.7 µM [sample B]
[5]
  Potency: inactive [sample A] and active: 29.6 µM [sample B]
[9]
  Potency: inactive [sample A] and active: 29.6 µM [sample B]
[1]
  Potency: inactive [sample A] and active: 16.6 µM [sample B]
[8]
  Potency: inactive [sample A] and active: 23.5 µM [sample B]
[3]
  Potency: inactive [sample A] and active: 33.2 µM [sample B]

## Cc1c(OCC(F)(F)F)ccnc1CS(=O)c1nc2ccccc2[nH]1 (stereo unspecified)
[5]
  Potency: inactive [sample A] and active: 18.7 µM [sample B]

## Cc1c(C(=O)NN2CCCCC2)nn(-c2ccc(Cl)cc2Cl)c1-c1ccc(Cl)cc1
[1]
  Potency: active: 18.7 µM [sample A] and inactive [sample B]

## O=C(NCCO[N+](=O)[O-])c1cccnc1
[5]
  Potency: active: 18.7 µM [sample A] and inactive [sample B]
[1]
  Potency: active: 14.8 µM [sample A] and inactive [sample B]

## COC(=O)C1=C(C)NC(C)=C(C(=O)OC(C)C)C1c1cccc2nonc12 (stereo unspecified)
[10]
  Potency: active: 23.5 µM [sample A] and inactive [sample B]
[4]
  Potency: active: 14.8 µM [sample A] and inactive [sample B]
[2]
  Potency: active: 15.2 µM [sample A] and inactive [sample B]
[1]
  Potency: active: 9.35 µM [sample A] and inactive [sample B]
[11]
  Potency: active: 23.5 µM [sample A] and inactive [sample B]

## O=C(NCC1CCCCN1)c1cc(OCC(F)(F)F)ccc1OCC(F)(F)F (stereo unspecified)
[10]
  Potency: active: 11.8 µM [sample A] and inactive [sample B]
[12]
  Potency: active: 935 nM [sample A] and inactive [sample B]
[4]
  Potency: active: 46.9 nM [sample A] and inactive [sample B]
[5]
  Potency: active: 3.32 µM [sample A] and inactive [sample B]
[13]
  Potency: active: 485 nM [sample A] and inactive [sample B]
[7]
  Potency: active: 2.64 µM [sample A] and inactive [sample B]
[9]
  Potency: active: 935 nM [sample A] and inactive [sample B]
[2]
  Potency: active: 10.8 µM [sample A] and inactive [sample B]
[1]
  Potency: active: 16.6 µM [sample A] and inactive [sample B]
[8]
  Potency: active: 590 nM [sample A] and inactive [sample B]
[6]
  Potency: active: 769 nM [sample A] and inactive [sample B]
[14]
  Potency: active: 685 nM [sample A] and inactive [sample B]
